# Some of the results follow.
# What was measured:
# Test in all cases: glycan array binding signal (z-score within array); higher = stronger binding
# Details in all cases: glycan notation: IUPAC condensed, linker removed
# [1] = target: Gal(b1-4)GlcNAc(b1-3)Gal(b1-4)GlcNAc
# Summary of the method: (§1)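 Glycan array data came from 3228 arrays in the Consortium for Functional Glycomics database, and only arrays with an available protein sequence were kept. Glycan names were put into IUPAC-condensed notation, and columns mapping to the same glycan were averaged. The binding signal is a within-array Z-score, averaged across arrays of one protein sequence run at different concentrations or buffers and across linkers. A negative Z-score can be read as non-binding.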
# [2] = target: Gal(b1-4)GlcNAc(b1-3)Gal(b1-4)GlcNAc(b1-3)Gal(b1-4)GlcNAc
# Summary of the method: as §1
# [3] = target: Gal(b1-4)GlcNAc(b1-3)Gal(b1-4)[Fuc(a1-3)]GlcNAc(b1-3)Gal(b1-4)[Fuc(a1-3)]GlcNAc
# Summary of the method: as §1
# [4] = target: Gal(b1-4)GlcNAc(b1-3)GalNAc
# Summary of the method: as §1
# [5] = target: Gal(b1-4)GlcNAc(b1-3)[Gal(b1-4)GlcNAc(b1-6)]Gal(b1-4)GlcNAc
# Summary of the method: as §1
# [6] = target: Gal(b1-4)GlcNAc(b1-3)[Gal(b1-4)GlcNAc(b1-6)]GalNAc
# Summary of the method: as §1
# [7] = target: Gal(b1-4)GlcNAc(b1-3)[GlcNAc(b1-6)]Gal(b1-4)GlcNAc
# Summary of the method: as §1
# [8] = target: Gal(b1-4)GlcNAc(b1-6)Gal(b1-4)GlcNAc
# Summary of the method: as §1
# [9] = target: Gal(b1-4)GlcNAc(b1-6)Gal(b1-4)GlcNAc(b1-6)GalNAc
# Summary of the method: as §1
# [10] = target: Gal(b1-4)GlcNAc(b1-6)GalNAc
# Summary of the method: as §1
# [11] = target: Gal(b1-4)GlcNAc(b1-6)[Gal(b1-3)]GalNAc
# Summary of the method: as §1
# Gal3S(b1-3)GalNAc = target: Gal3S(b1-3)GalNAc
# Summary of the method: as §1
# Gal3S(b1-3)GlcNAc = target: Gal3S(b1-3)GlcNAc
# Summary of the method: as §1
# [12] = target: Gal3S(b1-3)[Fuc(a1-4)]GlcNAc
# Summary of the method: as §1
# Gal3S(b1-4)Glc = target: Gal3S(b1-4)Glc
# Summary of the method: as §1
# Gal3S(b1-4)Glc6S = target: Gal3S(b1-4)Glc6S
# Summary of the method: as §1
# Gal3S(b1-4)GlcNAc = target: Gal3S(b1-4)GlcNAc
# Summary of the method: as §1
# Gal3S(b1-4)GlcNAc6S = target: Gal3S(b1-4)GlcNAc6S
# Summary of the method: as §1
# [13] = target: Gal3S(b1-4)[Fuc(a1-3)]Glc
# Summary of the method: as §1
# [14] = target: Gal3S(b1-4)[Fuc(a1-3)]Glc6S
# Summary of the method: as §1
# Gal3S4S(b1-4)GlcNAc = target: Gal3S4S(b1-4)GlcNAc
# Summary of the method: as §1
# Gal3S6S(b1-4)GlcNAc = target: Gal3S6S(b1-4)GlcNAc
# Summary of the method: as §1
# Gal3S6S(b1-4)GlcNAc6S = target: Gal3S6S(b1-4)GlcNAc6S
# Summary of the method: as §1
# Gal4S(b1-4)GlcNAc = target: Gal4S(b1-4)GlcNAc
# Summary of the method: as §1
# Gal4S6S(b1-4)GlcNAc = target: Gal4S6S(b1-4)GlcNAc
# Summary of the method: as §1
# Gal6S(b1-4)Glc = target: Gal6S(b1-4)Glc
# Summary of the method: as §1
# Gal6S(b1-4)Glc6S = target: Gal6S(b1-4)Glc6S
# Summary of the method: as §1
# Gal6S(b1-4)GlcNAc = target: Gal6S(b1-4)GlcNAc
# Summary of the method: as §1
# Gal6S(b1-4)GlcNAc6S = target: Gal6S(b1-4)GlcNAc6S
# Summary of the method: as §1
# GalNAc(a1-3)Gal = target: GalNAc(a1-3)Gal
# Summary of the method: as §1
# GalNAc(a1-3)GalNAc = target: GalNAc(a1-3)GalNAc
# Summary of the method: as §1
# [15] = target: GalNAc(a1-3)GalNAc(a1-3)Gal(a1-4)Gal(b1-4)GlcNAc
# Summary of the method: as §1
# GalNAc(b1-3)Gal = target: GalNAc(b1-3)Gal
# Summary of the method: as §1
# [16] = target: GalNAc(b1-3)Gal(a1-4)Gal(b1-4)GlcNAc
# Summary of the method: as §1
# [17] = target: GalNAc(b1-3)Gal(a1-4)Gal(b1-4)GlcNAc(b1-3)Gal(b1-4)Glc
# Summary of the method: as §1
# [18] = target: GalNAc(b1-3)Gal(a1-6)Gal(b1-4)Glc
# Summary of the method: as §1
# GalNAc(b1-3)GalNAc = target: GalNAc(b1-3)GalNAc
# Summary of the method: as §1
# GalNAc(b1-4)GlcNAc = target: GalNAc(b1-4)GlcNAc
# Summary of the method: as §1
# [19] = target: GalNAc(b1-4)GlcNAc(b1-2)Man(a1-3)[GalNAc(b1-4)GlcNAc(b1-2)Man(a1-6)]Man(b1-4)GlcNAc(b1-4)GlcNAc
# Summary of the method: as §1
# Glc(a1-4)Glc = target: Glc(a1-4)Glc
# Summary of the method: as §1
# Glc(a1-6)Glc(a1-6)Glc = target: Glc(a1-6)Glc(a1-6)Glc
# Summary of the method: as §1
# Glc(b1-4)Glc = target: Glc(b1-4)Glc
# Summary of the method: as §1
# Glc(b1-6)Glc = target: Glc(b1-6)Glc
# Summary of the method: as §1
# GlcA(b1-3)Gal = target: GlcA(b1-3)Gal
# Summary of the method: as §1
# GlcA(b1-3)GlcNAc = target: GlcA(b1-3)GlcNAc
# Summary of the method: as §1
binder,measurement,setting,value
"Tachylectin-2 (Tachypleus tridentatus), TAL2_TACTR (protein) VGGESMLRGVYQDKFYQGTYPQNKNDNWLARATLIGKGGWSNFKFLFLSPGGELYGVLNDKIYKGTPPTHDNDNWMGRAKKIGNGGWNQFQFLFFDPNGYLYAVSKDKLYKASPPQSDTDNWIARATEIGSGGWSGFKFLFFHPNGYLYAVHGQQFYKALPPVSNQDNWLARATKIGQGGWDTFKFLFFSSVGTLFGVQGGKFYEDYPPSYAHDNWLARAKLIGNGGWDDFRFLFF",glycan array binding signal (z-score),[1],-0.367
same,glycan array binding signal (z-score),[2],-0.338
same,glycan array binding signal (z-score),[3],-0.449
same,glycan array binding signal (z-score),[4],-0.26
same,glycan array binding signal (z-score),[5],-0.43
same,glycan array binding signal (z-score),[6],-0.291
same,glycan array binding signal (z-score),[7],-0.309
same,glycan array binding signal (z-score),[8],-0.323
same,glycan array binding signal (z-score),[9],-0.469
same,glycan array binding signal (z-score),[10],3.79
same,glycan array binding signal (z-score),[11],-0.273
same,glycan array binding signal (z-score),Gal3S(b1-3)GalNAc,-0.323
same,glycan array binding signal (z-score),Gal3S(b1-3)GlcNAc,-0.354
same,glycan array binding signal (z-score),[12],0.014
same,glycan array binding signal (z-score),Gal3S(b1-4)Glc,-0.332
same,glycan array binding signal (z-score),Gal3S(b1-4)Glc6S,-0.346
same,glycan array binding signal (z-score),Gal3S(b1-4)GlcNAc,-0.359
same,glycan array binding signal (z-score),Gal3S(b1-4)GlcNAc6S,-0.245
same,glycan array binding signal (z-score),[13],-0.39
same,glycan array binding signal (z-score),[14],-0.29
same,glycan array binding signal (z-score),Gal3S4S(b1-4)GlcNAc,-0.318
same,glycan array binding signal (z-score),Gal3S6S(b1-4)GlcNAc,-0.17
same,glycan array binding signal (z-score),Gal3S6S(b1-4)GlcNAc6S,-0.393
same,glycan array binding signal (z-score),Gal4S(b1-4)GlcNAc,-0.344
same,glycan array binding signal (z-score),Gal4S6S(b1-4)GlcNAc,-0.23
same,glycan array binding signal (z-score),Gal6S(b1-4)Glc,-0.268
same,glycan array binding signal (z-score),Gal6S(b1-4)Glc6S,-0.353
same,glycan array binding signal (z-score),Gal6S(b1-4)GlcNAc,-0.203
same,glycan array binding signal (z-score),Gal6S(b1-4)GlcNAc6S,-0.339
same,glycan array binding signal (z-score),GalNAc(a1-3)Gal,3.15
same,glycan array binding signal (z-score),GalNAc(a1-3)GalNAc,4.41
same,glycan array binding signal (z-score),[15],2.23
same,glycan array binding signal (z-score),GalNAc(b1-3)Gal,-0.345
same,glycan array binding signal (z-score),[16],-0.254
same,glycan array binding signal (z-score),[17],-0.295
same,glycan array binding signal (z-score),[18],-0.295
same,glycan array binding signal (z-score),GalNAc(b1-3)GalNAc,-0.255
same,glycan array binding signal (z-score),GalNAc(b1-4)GlcNAc,-0.293
same,glycan array binding signal (z-score),[19],-0.289
same,glycan array binding signal (z-score),Glc(a1-4)Glc,-0.247
same,glycan array binding signal (z-score),Glc(a1-6)Glc(a1-6)Glc,-0.334
same,glycan array binding signal (z-score),Glc(b1-4)Glc,-0.295
same,glycan array binding signal (z-score),Glc(b1-6)Glc,-0.359
same,glycan array binding signal (z-score),GlcA(b1-3)Gal,-0.353
same,glycan array binding signal (z-score),GlcA(b1-3)GlcNAc,-0.22
